# Experimental data: ChEMBL document CHEMBL5606460, “ASAP - DENV-2 NS2B-NS3 protease fluorescence single point” (2024)
# In all, about 2,000 compounds went through this assay and about 110 (5.5%) showed an effect of 50% or more. The list shows a part of the results.
# Target: Genome polyprotein (dengue virus type 2) (UniProt P29990)
# [1] = Thailand/16681/1984, Concentration 25.0 uM, Number of replicates 1.0
smiles,measurement,setting,value
CNC(=O)C[C@H]1CCN1S(=O)(=O)c1ccc(Oc2ccccc2Cl)cc1,inhibition,"Thailand/16681/1984, Concentration 49.5 uM, Number of replicates 2.0, Standard deviation 0.3861860095213186 %",-3.15%
same,inhibition,"Thailand/16681/1984, Concentration 99.01 uM, Number of replicates 2.0, Standard deviation 0.3537656421223746 %",-2.95%
same,inhibition,"Thailand/16681/1984, Concentration 198.0 uM, Number of replicates 2.0, Standard deviation 0.4333866866371539 %",-1.59%
COc1cc(-c2ccccc2C(=O)Nc2cnn(C)c2)ccn1,inhibition,"Thailand/16681/1984, Concentration 49.5 uM, Number of replicates 2.0, Standard deviation 4.323163758485895 %",-4.69%
same,inhibition,"Thailand/16681/1984, Concentration 99.01 uM, Number of replicates 2.0, Standard deviation 4.48735902944615 %",-4.18%
same,inhibition,"Thailand/16681/1984, Concentration 198.0 uM, Number of replicates 2.0, Standard deviation 2.9236410702171507 %",-5.24%
CC(C)(NC(=O)C1CCN(c2ccc(C=O)cc2)CC1)c1ccc(Cl)cc1,inhibition,[1],14.1%
OCCOc1cc(COc2cccnc2F)nc(N2CCNCC2)n1,inhibition,"Thailand/16681/1984, Concentration 49.5 uM, Number of replicates 2.0, Standard deviation 0.8209703699487908 %",-4.61%
same,inhibition,"Thailand/16681/1984, Concentration 99.01 uM, Number of replicates 2.0, Standard deviation 1.5262481464973596 %",-4.32%
same,inhibition,"Thailand/16681/1984, Concentration 198.0 uM, Number of replicates 2.0, Standard deviation 1.6374908756318014 %",-3.89%
O=C(Nc1cccc(B(O)O)c1)[C@H]1CCn2ccnc2C1,inhibition,"Thailand/16681/1984, Concentration 49.5 uM, Number of replicates 2.0, Standard deviation 3.550528405933761 %",-1.16%
same,inhibition,"Thailand/16681/1984, Concentration 99.01 uM, Number of replicates 2.0, Standard deviation 3.6153694779064374 %",-0.272%
same,inhibition,"Thailand/16681/1984, Concentration 198.0 uM, Number of replicates 2.0, Standard deviation 3.112374067793055 %",0.553%
COc1ccc(Cl)c(NC(=O)C2CCN(c3ccc(C=O)cc3)CC2)c1,inhibition,[1],12.9%
COc1cccc2c(N3CCC(C(=O)O)CC3)nccc12,inhibition,"Thailand/16681/1984, Concentration 49.95 uM, Number of replicates 2.0, Standard deviation 4.4972310857728575 %",-5.87%
same,inhibition,"Thailand/16681/1984, Concentration 99.9 uM, Number of replicates 2.0, Standard deviation 6.395002295242678 %",-4.4%
Cc1n[nH]c(CC(=O)N2CCC[C@H](n3cnc(C(N)=O)n3)C2)n1,inhibition,"Thailand/16681/1984, Concentration 49.5 uM, Number of replicates 2.0, Standard deviation 0.8615620840433298 %",-1.22%
same,inhibition,"Thailand/16681/1984, Concentration 99.01 uM, Number of replicates 2.0, Standard deviation 0.2938998370290156 %",-1.99%
same,inhibition,"Thailand/16681/1984, Concentration 198.0 uM, Number of replicates 2.0, Standard deviation 1.103757347430939 %",-0.94%
O=Cc1ccc(N2CCC(C(=O)Nc3ccc(C(F)(F)F)cn3)CC2)cc1,inhibition,[1],13.1%
O=Cc1ccc(N2CCC(C(=O)N3CCc4c([nH]c5ccccc45)C3)CC2)cc1,inhibition,[1],9.27%
Cc1ncc(-c2ccccc2C(=O)Nc2cnn(C)c2)cn1,inhibition,"Thailand/16681/1984, Concentration 49.5 uM, Number of replicates 2.0, Standard deviation 1.8830776326988092 %",0.863%
same,inhibition,"Thailand/16681/1984, Concentration 99.01 uM, Number of replicates 2.0, Standard deviation 1.4139307148727385 %",1.92%
same,inhibition,"Thailand/16681/1984, Concentration 198.0 uM, Number of replicates 2.0, Standard deviation 0.9378300938779764 %",3%
O=Cc1ccc(N2CCC(C(=O)Nc3nc(-c4ccc(Cl)c(Cl)c4)cs3)CC2)cc1,inhibition,[1],14.6%
CC[C@H]1CCN(c2nccn(CC)c2=O)C1,inhibition,"Thailand/16681/1984, Concentration 49.5 uM, Number of replicates 2.0, Standard deviation 1.2045387230027946 %",5.49%
same,inhibition,"Thailand/16681/1984, Concentration 99.01 uM, Number of replicates 2.0, Standard deviation 1.538920355145433 %",11.2%
same,inhibition,"Thailand/16681/1984, Concentration 198.0 uM, Number of replicates 2.0, Standard deviation 0.5510825197470987 %",22%
Cc1cc(CO)c2cccc(Cc3ccccc3NC(=O)c3nc(C4CCNCC4)oc3C)c2n1,inhibition,"Thailand/16681/1984, Concentration 49.95 uM, Number of replicates 2.0, Standard deviation 1.1742415452444355 %",3.36%
same,inhibition,"Thailand/16681/1984, Concentration 99.9 uM, Number of replicates 2.0, Standard deviation 2.967451033370285 %",69.9%
CNC(=O)C1(C(=O)Nc2ccncc2C)CC1,inhibition,"Thailand/16681/1984, Concentration 49.5 uM, Number of replicates 2.0, Standard deviation 1.0913332994268976 %",-3.7%
same,inhibition,"Thailand/16681/1984, Concentration 99.01 uM, Number of replicates 2.0, Standard deviation 0.634108102390891 %",-3.75%
same,inhibition,"Thailand/16681/1984, Concentration 198.0 uM, Number of replicates 2.0, Standard deviation 0.9969322823700151 %",-3.62%
Cc1cc(CO)c2cccc(Cc3cccc(C(=O)N4CC[C@@H](CO)C4)c3)c2n1,inhibition,"Thailand/16681/1984, Concentration 49.95 uM, Number of replicates 2.0, Standard deviation 1.5846275376108605 %",1.42%
same,inhibition,"Thailand/16681/1984, Concentration 99.9 uM, Number of replicates 2.0, Standard deviation 0.9371220268229934 %",23.4%
COc1cc(NC(=O)C2CCN(c3ccc(C=O)cc3)CC2)nc(OC)n1,inhibition,[1],9.38%
O=Cc1ccc(N2CCC(C(=O)Nc3ncccc3C(F)(F)F)CC2)cc1,inhibition,[1],12.3%
COc1cc(CS(=O)(=O)Cc2c(F)cccc2Cl)nc(N2CCNCC2)n1,inhibition,"Thailand/16681/1984, Concentration 50.0 uM, Number of replicates 2.0, Standard deviation 0.3148657868207599 %",-0.911%
same,inhibition,"Thailand/16681/1984, Concentration 100.0 uM, Number of replicates 2.0, Standard deviation 0.26663335485337786 %",-0.723%
same,inhibition,"Thailand/16681/1984, Concentration 200.0 uM, Number of replicates 2.0, Standard deviation 0.41891784213075806 %",1.05%
O=Cc1ccc(N2CCC(C(=O)Nc3ncc(C(F)(F)F)cc3Cl)CC2)cc1,inhibition,[1],11.8%
Cc1cc(Br)cc(C)c1NC(=O)C1CCN(c2ccc(C=O)cc2)CC1,inhibition,[1],11.3%
Cc1ccc(S(N)(=O)=O)c(NCc2ccc(N3CCN(C)CC3)cc2)c1,inhibition,"Thailand/16681/1984, Concentration 49.5 uM, Number of replicates 2.0, Standard deviation 0.9591550294519122 %",-0.337%
same,inhibition,"Thailand/16681/1984, Concentration 99.01 uM, Number of replicates 2.0, Standard deviation 0.6629248720953049 %",1.24%
same,inhibition,"Thailand/16681/1984, Concentration 198.0 uM, Number of replicates 2.0, Standard deviation 0.09920698004573132 %",1.03%
CN(CCO[Si](C)(C)C(C)(C)C)C(=O)C1CCN(c2ccc(C=O)cc2)CC1,inhibition,[1],11.8%
Cc1cc(CO)c2cccc(C[C@H](NC(=O)c3nc(-c4ccccc4)oc3C(F)(F)F)C(=O)O)c2n1,inhibition,"Thailand/16681/1984, Concentration 49.95 uM, Number of replicates 2.0, Standard deviation 1.1931156626508872 %",2.42%
same,inhibition,"Thailand/16681/1984, Concentration 99.9 uM, Number of replicates 2.0, Standard deviation 0.9640865689758992 %",8.9%
